The list shows a part of the results.
The sequences below were run on PF3D7_0420300 AP2 domain 1 (GST-tagged) (assay: gcPBM binding intensity (ln(normalized median fluorescence intensity)); higher = stronger DNA binding).
Summary of the method: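 Alexa488 anti-GST antibody, scanned at 488 nm, detected GST-tagged P. falciparum DNA-binding domains that had been expressed in E. coli and incubated for 1 h on an Agilent 4 × 180k array. The array carried primer-extended double-stranded 36-bp intergenic genomic probes and negative controls. Binding intensity is the highest Masliner-normalised natural-log median intensity across replicate spots of either orientation of each probe.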

Sequence	gcPBM binding intensity (ln)
ATTAAAATGGTATGTGCGCACATAATATATATATGT [GTGCAC_site9572]	9.48
TGGAAAATTATTAACACACACATATAAATATATATA [CACACA_site46]	9.74
GTAATAAGAATTATAGTGCAATGTAATACATTTATA	9.23
TAATTTGAACGGTACAGTACTCTTTTTCTTTTTCAT [XGTACX_site5534]	9.4
ATATATTTTTTCAATTGTACGTTTTAATAATATTTA [XGTACX_site2130]	9.5
AATACAACATAATGAAGTACTGTATTTTATATTACT [XGTACX_site4885]	9.29
ATGAAATCTTTAGAATATAGATGATGTTATTTAATT [XGTACX_negctrl_site511]	8.96
TTTCTTTGAATAAATACACACGAGAAATGAAAGTAG [CACACA_site8490]	9.53
CTTTTATTGCTCTATATGCACACCTTAATTCTTCAT [CACACA_site2195]	9.63
GCAAAATTTCCTAAGGTGCTTTTATTTTACACCGTT [GTGCAC_site9923]	9.28
AATGGGTTAGCACATACACACCAATATATTATAGAT [CACACA_site7444]	9.51
AAAACCTAAAAGTCTTAAATTTTAAATATACCTACA [GTGCAC_negctrl_site492]	9.09
TTTATTACCATATTTTGTACACACATCTTTATCTCA [XGTACX_site6842]	9.85
ATAAAAAATAAATAAGGTACAGAACATTTATACATT [XGTACX_site1783]	9.61
AAATTAAACAATAAATGTACATATATATTTGTATAT [XGTACX_site1092]	9.2
AACAAGGTATTAGGGTGTACTATATATATTTATATT [XGTACX_site7776]	9.49
TAAAGGAGCCTATGAACACACACATGTACTTATATT [CACACA_site9351]	9.7
AATTGTTTGTTTGGGTGTACATGGTTCTATATAAAT [XGTACX_site7940]	9.6
AATAAAATATAAACATTATATATATATATATATATA [GTGCAC_negctrl_site58]	8.92
ATTTTTTCTTTTTTTTTTCCGTTTTTTTGGACATTT [CACACA_negctrl_site1174]	9.45
ATAAAAATAAAAGACGCATGTTCTTAAAATAAGAAC [TGCATGCA_site189]	9.33
ATATATATATATAATGCACACATTATGAATTATGTA [CACACA_site3384]	9.25

Sequence	gcPBM binding intensity (ln)
AAACAAAATGGTAACACACACATATATATATATATA [CACACA_site1939]	9.77
GTGTGATCTTTTGAAAGTACATTTTTTTTTTTTTTT [XGTACX_site6311]	9.08
AGGTCATACATAAAATGTACATATATATAAATATAT [XGTACX_site7147]	9.21
TGAACACCCAAATACACACACTCAAAAAAAAAAAAG [CACACA_site5467]	9.65
ACAAGAATACACCACGCACACACACTAGAGAAAAAA [CACACA_site9276]	9.92
TAATAAAGTATTTTGCGTACTTATTTTATTCTTCTA [XGTACX_site2095]	9.19
GCCCCCAAATTATGTGTGCACTTTATATTCCTGAGA [GTGCAC_site9474]	9.69
TGGCATATATATAAATGTACTTTCTTTCTATCTGTT [XGTACX_site8483]	9.34
ATTGTGTGAACAAAATGTACATTTTCTCTACATTAA [XGTACX_site1333]	9.12
TTATATATATGTAATTGTACTTTTAATTTTTTTTTA [XGTACX_site4357]	9.19
TAATTTTTTTTAAATACACACTGAAATGTGAATTTT [CACACA_site4476]	8.96
TATTTTATAATAGGCACACATATAAAAATATATATA [CACACA_site4127]	9.06
TCATGTAACCATTCATGTACTCAAAAAAAAAAAAAA [XGTACX_site1027]	8.76
TTTTTTATGATTAACACACACACAAAAAAAAAAAAA [CACACA_site4130]	9.52
AAAAAAAAAACAAATACACACGCACCCAAAAAAAAA [CACACA_site8166]	9.81
AAATGAAAGAACAGCACACATATATATTATATATAA [CACACA_site2002]	9.63
AACATATTTTTTCTTAAACACACACCGATATATATA [CACACA_site8919]	9.64
AATATATATTTCTAAGATAAAACCCAAGGATAAAAA [CACACA_negctrl_site735]	9.3
TCTGTAAATATGTATACACACATATCTGATCAATAT [CACACA_site5743]	9.56
AATTAATTTATTTTATAAATAGTTAGATCGTCATAA [GTGCAC_negctrl_site660]	8.87
ATTTCATTAAAGATTACATGCAATTCTATATTATTT [TGCATGCA_site260]	9.17
AACATAAATTACTTTTTACACACTAATATAAAATAC [CACACA_site8297]	9.42

— the supplement of paper PMC11417369
